Measurements from the RNAGym collection of RNA variant scans (doi:10.7554/elife.90254).
Read counts are not given, so values of variants with three or more changes are uncertain.

B1: LINE1-full (parent)
chain: UACGUAGGUGGUUUUCCCCUGAUAGUGCUAAGGGGGCCUGGAAGUUUGGACUGGGCAGAGCUCAACACAGCGUGGCAAAGUGGCUGUGGCUAGACUGCCUCUCUGGAUUCCUCGUCACUCAGCAGGGCAUCUCUGAGAGAAAUGCC

Variants of: B1
Experiment: self-cleavage, relative activity (ratio to wild type); higher = more cleavage; in vitro, sequencing; the parent is a self-cleaving ribozyme

**Q.** With UACGUAGGUGGUCUCCCCCUGAUAGUGCUAAGGGGGCCUGGAAGUUUGGACUGGGCAGAGCUCAACACAGCGUGGCAAAGUGGCUGUGGCUAGACUGCCUCUCUGGAUUCCUCGUCACUCAGCAAGGCAUCUCUGAGAGAAAUGCC [U13C U15C G125A] as the variant, how does the self-cleavage read?
**A.** The self-cleavage was 1.12.

**Q.** Which self-cleavage does the source give for UACGUAGGUGGUCUCCCCCUGAUAGUGCUAAGGGGGCCUGGAAGUAUGGACUGGGCAGACCUCAACACAGCGUGGCGAAGUGGCUGUGGCUAGACGGCCUCUCUGGAUUCCUCGUCACUCAGCAGGGCAUCUCUGAGAGAAAUGCC [U13C U15C U46A G60C A77G U96G] here?
**A.** Its self-cleavage is 0.31.

**Q.** With UACGUAGGUGGUCUCCCCCUGAUAGUGCUAAGGGGGCCUGGAAGUUCGGACUGGGCAGGGCUCAACACAGCGUGGCAAAGUGGCUGUGGCUAGACUGCCUCUCUGGAUUCCUCGUCACUCAGCAGGGCAUCUCUGAGAGAAAUGCC [U13C U15C U47C A59G] as the variant, how does the self-cleavage read?
**A.** Its self-cleavage is 0.

**Q.** With UACGUAGGUGGUCUGCCCCUGAUAGUGCUAAGGGGGCCUGGAAGUUUGGGCUGGGCAGAGCUCAACACAGCGUGGCAAGGUGGCUGUGGCUAGACUGCCUCUCUGGAUUCCUCGUCACUCAGCAGGGCAUCUCUGAGAGAAAUGCC [U13C U15G A50G A79G] as the variant, how does the self-cleavage read?
**A.** Its self-cleavage is 0.

**Q.** Which self-cleavage does the source give for UACGUAGGUGGUCUUCCCCAGAUAGUGCUAAGGGGGCCUGGAAGUUUGGGCUGGGCAGAGCUCAACACAGCGUGGCAAAGUGGCUGUGGCUAGACUGCCUCUCUGGAUUCCUCGUCACUCAGCAGGGCAUCUCUGAGAGAAACGCC [U13C U20A A50G U143C] here?
**A.** The self-cleavage was 0.9.

**Q.** For UACGUAGGUGGUCUUCCCCAGAUAGUGCUAAGGGGGCCUGGAAGUUUGGACUGGGCAGAGCUCAACACAGCGUGGCAAAGUGGCUGUGGCUAGACUGCCUCUCUGGAUUCCUCGUCACUCAGCAGGGCAUCUCUGGGAGAAAUGCC [U13C U20A A136G], which self-cleavage is on record?
**A.** Its self-cleavage is 0.67.

**Q.** Which self-cleavage does the source give for UACGUAGGUGGUCUUCCCCAGAUAGUGCUAAGGGGGCCUGGAAGUUCGGACUGGGCAGAGCUCAACACAGCGUGGCAAAGUGGCUGUGGCUAGACUGCCUCUCUGGAUUCCUCGUCACUCAGCAGGGCUUCUCUGAGAGGAAUGCC [U13C U20A U47C A129U A140G] here?
**A.** Its self-cleavage is 0.86.

**Q.** Which self-cleavage does the source give for UACGUAGGUGGUCUUCCCCCGAUAGUGCUAAGGGGGCCUGGAAGUUUGGACUGGGCAGAGCUCAACACAGCGUGGCAAAGUGGCUGUGGCUAGUCUGCCUCUCUGGAUUCCUCGUCACUCAGCAGGGCAUCUCUGGGAGAAAUGCC [U13C U20C A94U A136G] here?
**A.** Its self-cleavage is 0.31.

**Q.** With UACGUAGGUGGUCUUCCCCCGAUAGUGCUAAGGGGGCCUGGAAGUUUGGACUGGGCAGAGCUCAACACAGCGUGGCAAAGUGGCUGUGGCUAGACUGCCUCUCUGGAUUCCUCGUCACUCAGCAGGGCAUCUCUGAGAGAGAUGCC [U13C U20C A141G] as the variant, how does the self-cleavage read?
**A.** The self-cleavage was 1.29.

**Q.** With UACGUAGGUGGUCUUCCCCCGAUAGUGCUAAGGGGGCCUGGAAGUUUGGACUGGGCAGAGCUCAACACAGCGUAGCAAAGUGGCUGUGGCUAGACUGCCUCUCUGGAUUCCUCGUCACUCAGCAGGGCAUCUCUGAGAGAAAUGCC [U13C U20C G74A] as the variant, how does the self-cleavage read?
**A.** The self-cleavage was 1.03.

**Q.** For UACGUAGGUGGUCUUCCCCCGAUAGUGCUAAGGGGGCCUGGAAGUUUGGACUGGGCAGAGCUCAACACAGCGUGACAAAGUGGCUGUGGCUAGACUGCCUCUCUGGAUUCCUCGUCACUCAGCAGGGCAUCUCUGAGAGAAAUGCC [U13C U20C G75A], which self-cleavage is on record?
**A.** Its self-cleavage is 0.57.

**Q.** For UACGUAGGUGGUCUUCCCCCGAUAGUGCUAAGGGGGCCUGGAAGUUUGGACUGGGCAGAGCUCAACACAGCGUGGCAAAGUGGCUAUGGCUAGACUGCCACUCUGGAUUCCUCGUCACUCGGCAGGGCAUCUCUGAGAGAAAUGCC [U13C U20C G86A U100A A121G], which self-cleavage is on record?
**A.** The self-cleavage was 0.12.

**Q.** For UACGUAGGUGGUCUUCCCCCGAUAGCGCUAAGGGGGCCUGGAGGUUUGGACUGGGCAGAGCUCAACACAGCGUGGCAAAGUGGCUGUGGCUAGACUGCCUCUCUGGAUUCCUCGUCACUCAGCAGGGCAUCUCUGAGAGAAAUGCC [U13C U20C U26C A43G], which self-cleavage is on record?
**A.** Its self-cleavage is 0.66.

**Q.** Which self-cleavage does the source give for UACGUAGGUGGUCUUCCCCGGAUAGUGCUAUGGGGGUCUGGAAGUUUGGACUGGGCAGAGCUCAACACAGCGUGGCAAAGUGGCUGUGGCUAGACUGCCUCUCUGGAUUCCUCGUCACUCAGCAGGGCAUCUCUGAGAGAAAUGCC [U13C U20G A31U C37U] here?
**A.** The self-cleavage was 1.4.

**Q.** Which self-cleavage does the source give for UACGUAGGUGGUCUUCCCCUGAAAGUGCUAAGAGGGCCUGGAGGUUUGGACUGGGCAGAGCUCAACACAGCGUGGCAAAGUGGCUGUGGCUAGACUGCCUCUCUGGAUUCCUCGUCACUCAGCAGGGCAUCUCUGAGAGAAAUGCC [U13C U23A G33A A43G] here?
**A.** The self-cleavage was 0.72.

**Q.** For UACGUAGGUGGUCUUCCCCUGAAAGUGCUAAGGGGGCCUGGAAUUUUGGACUGGGCAGAGCUCAACACAGCGUGGCGAAGUGGCUGUGGCUAGACUGCCUCUCUGGAUUCCUCGACACUCAGCAGGGCAUCUCUGAGAGAAAUGCC [U13C U23A G44U A77G U115A], which self-cleavage is on record?
**A.** The self-cleavage was 2.16.

**Q.** With UACGUAGGUGGUCUUCCCCUGACAGUGCUAAGGGGGCCUGGAAGUUUGGGCUGGGCAGAGCUCAACACAGCGUUGCAAAGCGGCUGUGGCUAGACUGCCUCUCUGGAUUCCUCGUCGCUCAGCAGGGCAUCUCUGAGAGAAAUGCC [U13C U23C A50G G74U U81C A117G] as the variant, how does the self-cleavage read?
**A.** The self-cleavage was 0.

**Q.** For UACGUAGGUGGUCUUCCCCUGACAGUGCUAAAGGGGCCUGGAAGUUUGGACUGGGCAGAGCUCAACACAGCGUGGCAAAGUGGCUGUGGCUAGACUGCCUCUCUGGAUUCCUCGUCACUCAGCAGGGCAUCUCUGAGAGAAAUGCC [U13C U23C G32A], which self-cleavage is on record?
**A.** Its self-cleavage is 1.78.

**Q.** Which self-cleavage does the source give for UACGUAGGUGGUCUUCCCCUGACAGAGCUAAGGGGGCCUGGAAGUUUGGACUGGGCAGAGCUCAACACAGCGUGGCGAAGUGGCUGUGGCUAGUCUGCCUCUCUGGAUUCCUCGUCACUCAGCAGGGCACCUCUGAGAGAAAUGCC [U13C U23C U26A A77G A94U U130C] here?
**A.** The self-cleavage was 1.67.

**Q.** With UACGUAGGUGGUCUUCCCCUGACAGUGCUAAGGGGGCCUGGAAGUAUGGACUGGGCAGAGCUCGACACAGCGUGGCAAAGUGGCUGUGGCUAGACUGCCUCUCUGGAUUCCUCGUCACUCAGCAGGGCAUCUCUGAGAGAAAUGCC [U13C U23C U46A A64G] as the variant, how does the self-cleavage read?
**A.** The self-cleavage was 0.47.
